No constants are given. Whether binding was seen depends on the method and setting. For part of these data: Binding seen in cells or lysates may run through a third protein. Some entries that bind do so weakly or less than the wild type. For part of these data: Sequences can lack the tags named with a protein.
Key:
GFP-fused MCM3 (human) = molecular target: T1, GFP-fused MCM3 (human) (UniProt P25205); experiment: co-IP; CRL-1790 cells transiently co-transfected with GFP-MCM3 and Flag-wtFANCD2 or Flag-mtFANCD2 K561R, lysates 48 hr post-transfection; reverse IP-WB with Flag and GFP antibodies; washes in 20mM HEPES pH 7.9, 350mM NaCl, 0.1% NP-40
T1 sequence: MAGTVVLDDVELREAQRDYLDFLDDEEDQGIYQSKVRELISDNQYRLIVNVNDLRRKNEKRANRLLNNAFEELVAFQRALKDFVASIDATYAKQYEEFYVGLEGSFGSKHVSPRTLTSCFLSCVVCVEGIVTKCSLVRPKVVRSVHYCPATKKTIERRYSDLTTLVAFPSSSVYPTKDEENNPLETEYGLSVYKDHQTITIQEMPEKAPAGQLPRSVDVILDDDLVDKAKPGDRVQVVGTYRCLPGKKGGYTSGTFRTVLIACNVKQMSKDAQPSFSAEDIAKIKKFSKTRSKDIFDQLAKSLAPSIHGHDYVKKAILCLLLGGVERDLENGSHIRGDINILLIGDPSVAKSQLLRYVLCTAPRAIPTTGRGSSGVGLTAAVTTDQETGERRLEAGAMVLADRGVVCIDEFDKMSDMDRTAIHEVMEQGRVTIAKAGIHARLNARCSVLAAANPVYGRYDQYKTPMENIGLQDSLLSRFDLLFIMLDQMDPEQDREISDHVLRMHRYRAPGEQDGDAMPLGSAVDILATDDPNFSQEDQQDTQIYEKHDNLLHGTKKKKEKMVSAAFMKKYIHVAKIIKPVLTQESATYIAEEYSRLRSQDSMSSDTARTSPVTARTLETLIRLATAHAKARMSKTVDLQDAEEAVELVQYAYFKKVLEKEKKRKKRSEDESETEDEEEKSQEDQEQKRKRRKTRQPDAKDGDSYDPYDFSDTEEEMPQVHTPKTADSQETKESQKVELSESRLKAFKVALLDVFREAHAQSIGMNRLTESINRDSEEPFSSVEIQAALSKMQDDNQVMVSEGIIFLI

Protein sequences, listed by entry. Tags and fused reporters are not part of them.
UniProt Q9BXW9: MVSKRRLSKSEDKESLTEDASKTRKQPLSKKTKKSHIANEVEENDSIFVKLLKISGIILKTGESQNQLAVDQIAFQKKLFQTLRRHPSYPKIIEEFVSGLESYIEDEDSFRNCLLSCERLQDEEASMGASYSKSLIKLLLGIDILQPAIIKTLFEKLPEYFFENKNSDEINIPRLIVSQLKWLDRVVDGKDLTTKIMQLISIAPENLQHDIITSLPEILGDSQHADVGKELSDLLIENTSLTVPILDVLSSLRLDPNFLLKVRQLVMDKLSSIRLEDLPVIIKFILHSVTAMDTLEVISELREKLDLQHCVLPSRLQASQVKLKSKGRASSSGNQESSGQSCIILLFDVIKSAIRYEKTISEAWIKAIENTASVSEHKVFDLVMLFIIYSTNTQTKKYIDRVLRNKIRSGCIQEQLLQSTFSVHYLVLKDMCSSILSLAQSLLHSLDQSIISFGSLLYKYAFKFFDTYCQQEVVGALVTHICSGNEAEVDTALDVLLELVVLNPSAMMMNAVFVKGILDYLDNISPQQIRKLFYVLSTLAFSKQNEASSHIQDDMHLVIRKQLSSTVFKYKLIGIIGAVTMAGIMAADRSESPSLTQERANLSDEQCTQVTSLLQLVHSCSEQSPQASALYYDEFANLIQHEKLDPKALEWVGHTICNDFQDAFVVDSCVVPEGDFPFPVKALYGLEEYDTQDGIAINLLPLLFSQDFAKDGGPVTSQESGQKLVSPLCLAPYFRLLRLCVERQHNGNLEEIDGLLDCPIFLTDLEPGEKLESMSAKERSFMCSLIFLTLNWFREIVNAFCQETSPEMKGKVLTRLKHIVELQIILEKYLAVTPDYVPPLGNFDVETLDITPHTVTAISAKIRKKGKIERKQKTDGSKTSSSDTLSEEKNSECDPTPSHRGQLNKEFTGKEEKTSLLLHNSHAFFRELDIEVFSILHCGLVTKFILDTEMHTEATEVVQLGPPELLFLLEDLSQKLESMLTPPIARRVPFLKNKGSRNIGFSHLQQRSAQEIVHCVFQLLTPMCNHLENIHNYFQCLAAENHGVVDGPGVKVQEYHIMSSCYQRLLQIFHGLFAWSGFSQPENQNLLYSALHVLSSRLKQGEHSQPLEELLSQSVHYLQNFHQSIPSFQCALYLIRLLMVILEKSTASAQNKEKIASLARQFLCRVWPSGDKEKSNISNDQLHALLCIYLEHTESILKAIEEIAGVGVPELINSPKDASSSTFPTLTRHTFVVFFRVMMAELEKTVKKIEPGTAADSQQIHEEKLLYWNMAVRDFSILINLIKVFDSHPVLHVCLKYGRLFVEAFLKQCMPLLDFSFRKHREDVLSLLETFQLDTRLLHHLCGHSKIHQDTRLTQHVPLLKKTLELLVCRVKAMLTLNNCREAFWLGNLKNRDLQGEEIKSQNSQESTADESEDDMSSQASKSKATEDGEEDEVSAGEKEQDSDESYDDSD

[1] = molecular target: T2, endogenous MCM3 (human (endogenous in CRL-1790)) (UniProt P25205); experiment: co-IP; lysates of starvation-synchronized CRL-1790 cell pools enriched in G1 or S phase; reverse IP-WB of endogenous MCM3 and FANCD2
T2 sequence: T1 sequence

[2] = molecular target: T2, endogenous MCM3 (human (endogenous in CRL-1790)); experiment: co-IP; pooled gel-filtration fractions #21 to #25 of CRL-1790 nuclear extract; reverse IP-WB between endogenous FANCD2 and MCM3, MCM2 or MCM7
[3] = molecular target: T3, GFP-MCM3 Δ477-480aa (human) (UniProt P25205); experiment: co-IP; CRL-1790 cells transfected with GFP-MCM3 or its deletion constructs; reverse IP-WB with GFP and FANCD2 antibodies against endogenous proteins
T3 sequence: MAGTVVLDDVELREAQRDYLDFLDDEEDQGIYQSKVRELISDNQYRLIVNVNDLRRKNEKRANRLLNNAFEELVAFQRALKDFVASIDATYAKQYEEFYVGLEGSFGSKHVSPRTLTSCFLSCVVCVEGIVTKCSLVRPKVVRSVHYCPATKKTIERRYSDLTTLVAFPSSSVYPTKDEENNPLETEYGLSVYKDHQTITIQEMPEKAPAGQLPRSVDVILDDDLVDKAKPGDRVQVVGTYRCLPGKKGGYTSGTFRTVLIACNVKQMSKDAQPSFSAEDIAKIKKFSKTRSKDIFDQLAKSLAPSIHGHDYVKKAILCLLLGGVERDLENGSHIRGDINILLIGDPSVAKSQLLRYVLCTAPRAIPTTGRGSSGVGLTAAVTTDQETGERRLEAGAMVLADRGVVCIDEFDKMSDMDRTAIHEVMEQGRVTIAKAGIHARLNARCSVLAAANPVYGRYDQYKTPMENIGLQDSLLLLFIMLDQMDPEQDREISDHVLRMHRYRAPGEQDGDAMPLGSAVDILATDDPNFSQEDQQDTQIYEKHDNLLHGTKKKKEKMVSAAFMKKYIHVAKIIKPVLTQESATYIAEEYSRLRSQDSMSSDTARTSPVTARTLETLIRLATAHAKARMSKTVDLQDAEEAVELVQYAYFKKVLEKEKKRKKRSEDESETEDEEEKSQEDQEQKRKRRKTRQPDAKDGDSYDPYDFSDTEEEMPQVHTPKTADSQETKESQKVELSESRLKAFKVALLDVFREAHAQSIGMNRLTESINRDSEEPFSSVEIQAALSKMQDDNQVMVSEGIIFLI

[4] = molecular target: T2, endogenous MCM3 (human (endogenous in CRL-1790)); experiment: SEC; nuclear extracts of normally growing CRL-1790 stable cells on a Superose 6B column, 20mM HEPES pH 7.9, 200mM NaCl, 0.1% NP-40, 5% glycerol; fractions analysed by SDS-PAGE and immunoblotting; co-peaking of endogenous (and exogenous mtMCM3) proteins
[5] = molecular target: endogenous FANCD2 (human (endogenous in CRL-1790)) (UniProt Q9BXW9); experiment: co-IP; lysates of starvation-synchronized CRL-1790 cell pools enriched in G1 or S phase; reverse IP-WB of endogenous MCM3 and FANCD2
[6] = molecular target: endogenous FANCD2 (human (endogenous in CRL-1790)) (UniProt Q9BXW9); experiment: co-IP; pooled gel-filtration fractions #21 to #25 of CRL-1790 nuclear extract; reverse IP-WB between endogenous FANCD2 and MCM3, MCM2 or MCM7
[7] = molecular target: Flag-wild type (wt) FANCD2 (UniProt Q9BXW9); experiment: co-IP; CRL-1790 cells transiently co-transfected with GFP-MCM3 and Flag-wtFANCD2 or Flag-mtFANCD2 K561R, lysates 48 hr post-transfection; reverse IP-WB with Flag and GFP antibodies; washes in 20mM HEPES pH 7.9, 350mM NaCl, 0.1% NP-40
[8] = molecular target: endogenous FANCD2 (human (endogenous in CRL-1790)) (UniProt Q9BXW9); experiment: co-IP; CRL-1790 cells transfected with GFP-MCM3 or its deletion constructs; reverse IP-WB with GFP and FANCD2 antibodies against endogenous proteins

With “Flag-wild type (wt) FANCD2 (from UniProt Q9BXW9 1-1451)” the binding (GFP-fused MCM3 (human)) was “binds”.

“endogenous FANCD2 (from UniProt Q9BXW9 1-1451)” was tested, and the binding [1] was “binds”, the binding [2] was “binds” and the binding [3] was “no binding”. For the same molecule, the binding [4] was “binds”.

B1: endogenous MCM3 (protein, UniProt P25205 1-808)
chain: T1 sequence
B1 was tested, and the binding [5] was “binds” and the binding [6] was “binds”.

B2: GFP-fused MCM3 (protein, UniProt P25205 1-808)
chain: T1 sequence
For B2, the binding [7] was “binds”.

B3: GFP-MCM3 Δ477-480aa (protein, UniProt P25205)
chain: T3 sequence
In the case of B3, the binding [8] is reported as “no binding”.
